From PubChem BioAssay AID686978 (National Center for Advancing Translational Sciences (NCATS), 2013)
The whole screen tested about 420,000 compounds, of which about 64,000 (15%) were called active. Inconclusive means that the source gave no clear call. Such entries were picked first, then a sample of the others. The call rests on the fitted dose curve; in most records, active means well fitted inhibition curve with a large enough effect; inconclusive means small, poorly fitted or top-dose-only effect; inactive means flat fitted curve, though single readings scatter. Potencies of inconclusive entries are left out as doubtful fits.

experiment: qHTS for Inhibitors of human tyrosyl-DNA phosphodiesterase 1 (TDP1): qHTS in cells in absence of CPT; settings: DT40 Tdp1-/- hTDP1 cells, no CPT, ATP luminescence, 48 h; activity change, negative = growth inhibition: at 46.2 µM (top of the series); further: nearly all actives have a fitted effect of over 55% in size
Summary of the method: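 Cells were dispensed at 400 per well, compounds added by pin tool, plates incubated ≥48 hr at 37 °C, then CellTiter-Glo added for 30 min at room temperature before luminescence reading. Line: DT40 Tdp1-/- complemented with hTDP1; camptothecin omitted.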
On the % scale 0 is the no-effect control and ±100 the full control effect; potency means the concentration at half of the fitted maximal effect; tags describe the fitted curve by direction and shape.

| SMILES | activity change, negative = growth inhibition | Potency |
| --- | --- | --- |
| CCOC(=O)COn1c(=O)c(-c2cccs2)[n+]([O-])c2ccccc21 | inconclusive: -24.3% [inhibitor] |  |
| CC(=O)Oc1ccc(C(=O)Nc2ccc3c(c2)C(=O)N(CCC(=O)O)C3=O)cc1 | inactive: 18.3% |  |
| NC(=N\N=CCc1ccccc1)/C(N)=N/N=CCc1ccccc1 |  | inconclusive [inhibitor, single point] |
| Cc1ccc(NC(=O)c2cc(S(=O)(=O)N3CCc4ccccc43)ccc2F)cc1Cl |  | active: 5.8 µM |
| COc1ccc(-c2nc3ncccc3o2)cc1NC(=O)c1ccco1 |  | inconclusive [inhibitor, partial curve, poor fit] |
| Cc1ccc(S(=O)(=O)NCCN=C(CN2CCCC2)NS(=O)(=O)c2ccc(C)cc2)cc1 | inactive: -15.5% |  |
| O=CC1=C(N2CCOCC2)/C(=C/c2ccc(Cl)cc2)CC1 |  | active: 20.6 µM |
| O=C(NCCc1c[nH]c2ccccc12)c1cccc(S(=O)(=O)Nc2ccccc2Cl)c1 |  | inconclusive [inhibitor, partial curve, poor fit] |
| O=C(Nc1nc2ccc(Oc3ccccc3)cc2s1)c1cc([N+](=O)[O-])ccc1N1CCOCC1 |  | active: 13 µM |
| CC(C1CC2CCC1C2)n1c(-c2ccco2)n[nH]c1=S (centres undefined) | inactive: -16.4% |  |
| Cc1ccc(O)c(-c2cc(C(F)(F)C(F)F)[nH]n2)c1 |  | active: 16.4 µM |
| Cc1c(Br)cccc1NC(=O)C1(C)CCN1CCc1ccccc1 (centres undefined) |  | inconclusive [inhibitor, single point] |
| CCOC(=O)c1nn(-c2ccccc2C)c(=O)cc1OCC(=O)Nc1cccc(OC)c1 | inactive: -11.1% |  |
| Cc1nc2ccccc2c(-c2ccccc2)c1C(=O)c1ccccc1 | inactive: -15.8% |  |
| CCN(CC)C(=O)Cn1cc(SCC(=O)Nc2ccccc2C)c2ccccc21 | inactive: -9.42% |  |
| CC1=C(C)C(c2ccccc2)NC(=S)N1 (centres undefined) |  | inconclusive [inhibitor, single point] |
| CCOC(=O)N1CCc2c(sc(NCc3cc(OC)c(OC)cc3OC)c2C(=O)Nc2ccc(OCC)cc2)C1 |  | inconclusive [inhibitor, single point] |
| CCOc1ccc(/C=N/Nc2ccc(Cl)nn2)c(O)c1 |  | active: 0.58 µM |
| CCc1ccc(-n2c(=O)c3cccnc3n2CC(=O)Nc2cc(F)ccc2F)cc1 |  | active: 8.2 µM |
| Cc1ccccc1-c1nc(-c2cccnc2)no1 | inactive: -22.8% |  |
| COc1cccc(N2CCN(C3C4CC5CC(C4)CC3C5)CC2)c1 (centres undefined) |  | inconclusive [inhibitor, single point] |
| Cc1ccccc1CSCC(=O)N/N=C/c1cccs1 |  | inconclusive [inhibitor, single point] |
| Oc1cccc(Nc2ncnc3ccccc23)c1 |  | inconclusive [inhibitor, single point] |
| CC(=O)c1csc(-c2cccc(-c3nc4ccc(Cl)cn4c3NC3CCCCC3)c2)c1 |  | inconclusive [inhibitor, single point] |
| O=C1C=C(NCc2ccc3c(c2)OCO3)CC(c2ccccc2)C1 (centres undefined) |  | active: 18.4 µM |

| SMILES | activity change, negative = growth inhibition | Potency |
| --- | --- | --- |
| CCc1ccc(NC(=O)CCS(=O)(=O)c2cccc3nsnc23)cc1 |  | inconclusive [inhibitor, single point] |
| COc1ccccc1/C=C/C(=O)OCC(=O)NCc1ccco1 |  | inconclusive [inhibitor, partial curve, poor fit] |
| OCCN(CCO)c1ccc2ccccc2c1 | inactive: 1.53% |  |
| O=C(CCSc1ccc(Cl)c(Cl)c1)NC12CC3CC(CC(C3)C1)C2 |  | inconclusive [inhibitor, single point] |
| COc1ccc(-c2c(C)nn3c(N)c(-c4ccccc4)cnc23)cc1OC |  | active: 6.51 µM |
| CCN(CC)CCCN1C(=O)c2oc3ccccc3c(=O)c2C1c1cccc(OC)c1OC (centres undefined) | inactive: 1.19% |  |
| COc1ccccc1NC(=O)c1ccc(S(=O)(=O)N(C)c2ccccc2OC)cc1 |  | inconclusive [inhibitor, partial curve] |
| COc1ccc(C2=NO[C@@H]3C(=O)N(C4CCCCC4)C(=O)[C@H]23)cc1OC | inactive: 2.73% |  |
| CCn1cc(C(=O)NCc2ccc(C)cc2)c(=O)c2cc(S(=O)(=O)N(C)C)ccc21 |  | inconclusive [inhibitor, partial curve] |
| Cc1ccc(C(=O)Nc2cccc(C(=O)NC3CCCCC3)c2)cc1 |  | inconclusive [inhibitor, single point] |
| NS(=O)(=O)c1ccc(NC(=S)N2CCN(c3ccc(Cl)c(Cl)c3)CC2)cc1 |  | active: 6.51 µM |
| CCN1CCN(c2ncc3c(n2)CCN(Cc2ccc(OC(C)C)cc2)C3)CC1 |  | inconclusive [inhibitor, single point] |
| CCOC(=O)C1(Cc2cccc(OC)c2)CCN(Cc2cccn2-c2ccccn2)CC1 |  | inconclusive [inhibitor, single point] |
| CCOc1cc(/C=C2/C(=O)ON=C2C)cc(Br)c1O |  | inconclusive [inhibitor, single point] |
| O=C(NCCc1ccccc1)c1nnc(CS(=O)(=O)c2ccccc2)o1 |  | inconclusive [inhibitor, single point] |
| CCOc1ccc(NC(=O)c2ccccc2O)cc1 |  | inconclusive [inhibitor, partial curve] |
| CCOc1ccccc1NC(=O)N1CCc2ccccc2C1 | inactive: -13.5% |  |
| Cc1cc2nc3c(nc2cc1C)C(O)=C3O |  | inconclusive [inhibitor, single point] |
| CCOC(=O)c1ccc(-c2ccc(/C=C(\C#N)C(=O)Nc3ccc(OCC)cc3)o2)cc1 | inactive: 1.66% |  |
| O=C(COC(=O)C1CCC(=O)N1)Nc1ccccc1Br (centres undefined) |  | inconclusive [inhibitor, single point] |
| COc1ccc(Cc2nnc(N)s2)cc1OC | inactive: 12.6% |  |
| CC(O)CCCCn1c(=O)c2c(ncn2C)n(C)c1=O (centres undefined) | inactive: -9.95% |  |
| Cc1ccc(-c2nnc(-n3nc(C)cc3C)c3ccccc23)cc1 |  | inconclusive [inhibitor, single point] |
| Cc1cccc(-c2nc(SCCCOc3ccc(Cl)c(C)c3)n3[nH]c(=O)cc3n2)c1 |  | inconclusive [inhibitor, single point] |
